Measured values from patent US20140005245A1, “INSECTICIDAL COMPOUNDS” (SYNGENTA PARTICIPATIONS AG, priority 2011, published 2014).
Some of these results come from one statement about several compounds together.

What was measured:
Format in all cases: in vivo
Thrips tabaci = Thrips tabaci (onion thrips) sunflower leaf disc spray test; conditions: application rate 200 ppm, sunflower leaf discs sprayed, population of mixed ages; mortality after 7 days
Spodoptera littoralis = Spodoptera littoralis (Egyptian cotton leafworm) leaf disc spray test; conditions: application rate 200 ppm, cotton leaf discs sprayed, 5 μl larvae; mortality, feeding behaviour, growth regulation 3 days after treatment
Diabrotica balteata = Diabrotica balteata (corn root worm) artificial diet test; conditions: application rate 200 ppm (concentration in well 18 ppm), L2 larvae, larval mortality, growth regulation after 5 days
Myzus persicae = Myzus persicae (green peach aphid) sunflower leaf disc spray test; conditions: application rate 200 ppm, sunflower leaf discs sprayed, aphid population of mixed ages; mortality after 6 DAT
Heliothis virescens = Heliothis virescens (tobacco budworm) egg/artificial diet test; conditions: application rate 200 ppm (concentration in well 18 pm), eggs 0 to 24 h old on artificial diet; egg mortality, larval mortality, growth regulation after 4 days
Plutella xylostella = Plutella xylostella (diamond back moth) artificial diet test; conditions: application rate 200 ppm (concentration in well 18 ppm), L2 larvae, larval mortality, growth regulation after 6 days
Tetranychus urticae = Tetranychus urticae (two-spotted spider mite) bean leaf disc spray test; conditions: application rate 200 ppm, bean leaf discs sprayed, mite populations of mixed ages; egg, larval and adult mortality 8 days later

Cn1nc(C(F)(F)C(F)(F)F)c(C(F)(F)F)c1-n1cc(-c2ccc(Cl)c(C(=O)NC3(C#N)CC3)c2)nn1 [Compound A103]
at least 80%: control of Thrips tabaci (Thrips tabaci) | control of Spodoptera littoralis (Spodoptera littoralis) | control of Diabrotica balteata (Diabrotica balteata) | control of Myzus persicae (Myzus persicae) | control of Heliothis virescens (Heliothis virescens) | control of Plutella xylostella (Plutella xylostella) | control of Tetranychus urticae (Tetranychus urticae)

CCN(C(=O)c1cccc(-c2cn(-c3c(C(F)(F)F)c(C(F)(F)C(F)(F)F)nn3C)nn2)c1F)C1CC1 [Compound A148]
at least 80%: control of Thrips tabaci (Thrips tabaci) | control of Spodoptera littoralis (Spodoptera littoralis) | control of Diabrotica balteata (Diabrotica balteata) | control of Myzus persicae (Myzus persicae) | control of Heliothis virescens (Heliothis virescens) | control of Plutella xylostella (Plutella xylostella) | control of Tetranychus urticae (Tetranychus urticae)

CCNC(=O)c1cc(-c2cn(-c3c(C(F)(F)F)c(C(F)(F)C(F)(F)F)nn3C)nn2)ccc1Cl [Compound A4]
at least 80%: control of Thrips tabaci (Thrips tabaci) | control of Spodoptera littoralis (Spodoptera littoralis) | control of Diabrotica balteata (Diabrotica balteata) | control of Myzus persicae (Myzus persicae) | control of Heliothis virescens (Heliothis virescens) | control of Plutella xylostella (Plutella xylostella) | control of Tetranychus urticae (Tetranychus urticae)

Cn1nc(C(F)(F)C(F)(F)F)c(C(F)(F)F)c1-n1cc(-c2ccc(Cl)c(C(=O)N(CCCC#N)C3CC3)c2)nn1 [Compound A102]
at least 80%: control of Thrips tabaci (Thrips tabaci) | control of Spodoptera littoralis (Spodoptera littoralis) | control of Diabrotica balteata (Diabrotica balteata) | control of Myzus persicae (Myzus persicae) | control of Heliothis virescens (Heliothis virescens) | control of Plutella xylostella (Plutella xylostella) | control of Tetranychus urticae (Tetranychus urticae)

Cn1nc(C(F)(F)C(F)(F)F)c(C(F)(F)F)c1-n1cc(-c2ccc(Cl)c(C(=O)NCC#N)c2)nn1 [Compound A137]
at least 80%: control of Thrips tabaci (Thrips tabaci) | control of Spodoptera littoralis (Spodoptera littoralis) | control of Diabrotica balteata (Diabrotica balteata) | control of Heliothis virescens (Heliothis virescens) | control of Plutella xylostella (Plutella xylostella) | control of Tetranychus urticae (Tetranychus urticae)

Cn1nc(C(F)(F)C(F)(F)F)c(C(F)(F)F)c1-n1cc(-c2ccc(Cl)c(C(=O)NC3CCC3)c2)nn1 [Compound A25]
at least 80%: control of Thrips tabaci (Thrips tabaci) | control of Spodoptera littoralis (Spodoptera littoralis) | control of Diabrotica balteata (Diabrotica balteata) | control of Heliothis virescens (Heliothis virescens) | control of Plutella xylostella (Plutella xylostella) | control of Tetranychus urticae (Tetranychus urticae)

Cn1nc(C(F)(F)C(F)(F)F)c(C(F)(F)F)c1-n1cc(-c2ccc(Cl)c(C(=O)NCC3CC3)c2)nn1 [Compound A141]
at least 80%: control of Thrips tabaci (Thrips tabaci) | control of Spodoptera littoralis (Spodoptera littoralis) | control of Diabrotica balteata (Diabrotica balteata) | control of Heliothis virescens (Heliothis virescens) | control of Plutella xylostella (Plutella xylostella) | control of Tetranychus urticae (Tetranychus urticae)

CCN(C(=O)c1cc(-c2cn(-c3c(C(F)(F)F)c(C(F)(F)C(F)(F)F)nn3C)nn2)ccc1Cl)C1CC1 [Compound A106]
at least 80%: control of Thrips tabaci (Thrips tabaci) | control of Spodoptera littoralis (Spodoptera littoralis) | control of Diabrotica balteata (Diabrotica balteata) | control of Myzus persicae (Myzus persicae) | control of Heliothis virescens (Heliothis virescens) | control of Plutella xylostella (Plutella xylostella) | control of Tetranychus urticae (Tetranychus urticae)
